Measured values as given in PMC12136788.
This is one part of the list.

T1: UNK ZnF1-6 (called full-length) (human, UniProt Q9C0B0 30-357)
T1 sequence: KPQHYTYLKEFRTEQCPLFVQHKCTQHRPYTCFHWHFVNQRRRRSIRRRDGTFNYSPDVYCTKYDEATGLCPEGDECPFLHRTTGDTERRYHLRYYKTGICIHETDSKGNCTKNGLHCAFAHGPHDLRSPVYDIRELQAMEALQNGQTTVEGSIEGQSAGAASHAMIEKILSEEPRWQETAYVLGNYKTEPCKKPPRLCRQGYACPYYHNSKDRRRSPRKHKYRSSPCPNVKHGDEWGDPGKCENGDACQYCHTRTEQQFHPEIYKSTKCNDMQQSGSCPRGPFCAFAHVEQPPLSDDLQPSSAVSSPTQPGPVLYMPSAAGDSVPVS

B1: chr2:135840511:135840612:-|3pUTR|ENSG00000076003|msi1|FALSE|unique (ssRNA)
RNA: GGGAGUUCUACAGUCCGACGAUCGCUUCAGCACUUCCUUUGGUGUGUUUCCUGUCCCAGUGAAGUUGGAACCAAAUAAUGUGUAGUCUCUAUAACCAAUACCUUUGUUUUCAUGUGUAAGAAAAGGCCCAUUACUUUUAAGGUCAACAGAGGAUUGAGCAUCA
B2: chrX:53432280:53432385:-|CDS|ENSG00000072506|unk|total|mutant (ssRNA)
RNA: GGGAGUUCUACAGUCCGACGAUCUGAGAAGGAUGUGCAAACAGCUCUGGCUCCCGCAAAAGGAAAGUUUGGCCGUGUGGAUGCCGCUGUCAACUGUGCAGGCAUCGCGGUGGCCCGCAAGACGUACAACUUAAAGAAGGGCCACAACAGAGGAUUGAGCAUCA
B3: chr11:134382709:134383006:-|CDS|ENSG00000109956|control|control|control (ssRNA)
RNA: GGGAGUUCUACAGUCCGACGAUCCGGGGCAGGGAAGGUGGUCGGCUGGAAGACGGUGUUUGACCCCCACCGGCCAUUUGCAAUAGACAUGGCUGGAUUUGCCGUCAACCUGCGGCUCAUUCUGCAGCGAAGCCAGGCCUACUUCAACAGAGGAUUGAGCAUCA
B4: chr5:173316791:173316892:-|3pUTR|ENSG00000113739|msi1|FALSE|unique (ssRNA)
RNA: GGGAGUUCUACAGUCCGACGAUCGGAAACCUUAUACCCAGAGGAAAAUACACACCUGGGGAGUACAUUUGACAAAUUUCCCUUAGGAUUUCGUUAUCUCACCUUGACCCUCAGCCAAGAUUGGUAAAGCUGCGUCCUGGCGAUCAACAGAGGAUUGAGCAUCA
B5: chr7:139028693:139028797:-|CDS|ENSG00000146858|unk|FALSE|unique (ssRNA)
RNA: GGGAGUUCUACAGUCCGACGAUCUUUCAGAUAAUCUCCACCUACAAGCAUAUGAAGCUGCACAAGAUGCUUGAAAAUACAGGUAGGAAUAUCCAAGAAGGACAGAGAAGUAUCAGCGAUAUGGUUUUGCGAUGCUUCACUGUGCAACAGAGGAUUGAGCAUCA
B6: chr1:62864655:62864756:+|3pUTR|ENSG00000125703|unk|FALSE|unique (ssRNA)
RNA: GGGAGUUCUACAGUCCGACGAUCUUUGUUAACUGUGAUAUGCAUACACUUAUAUAAGCAGAAUUAUGAGUUAAAGUAAUACUUAGCAAUAUGAUUUUAUAAUGGCUCCUCAUUAUGCUUGCUGUUGAACCUUUUAUGAGGAGUCAACAGAGGAUUGAGCAUCA
B7: chr8:52110837:52113338:-|three_prime_utr|ENSG00000147488|control|control|control (ssRNA)
RNA: GGGAGUUCUACAGUCCGACGAUCCCCCGGAAUGCAAAGCUCUACUGGAAAGUAUCAAACAGGCAGUGAAGGGUAUCCAUGUGUAGGAUCACAGCGCUGCCGGGCAACAGAAGUUACCAACAGCAGUAAACUCCAGAUGGAUCUCAACAGAGGAUUGAGCAUCA
B8: chr1:93353930:93354034:+|CDS|ENSG00000117505|unk|FALSE|unique (ssRNA)
RNA: GGGAGUUCUACAGUCCGACGAUCUUUGGGAUUUGGCUCUUACAUCAGUGAAGUAAAAGAAGUCUUGCAAGAGUGUAAAACAGUAGCAUUAAAAAGAAGAAAGGCCAGUUCUCGUUUGGAAAACCUUGGCAUUCCUGAAGAAGACAACAGAGGAUUGAGCAUCA
B9: chr11:56232108:56233062:-|CDS|ENSG00000181718|control|control|control (ssRNA)
RNA: GGGAGUUCUACAGUCCGACGAUCGACAAUCCUCUUCAUGUAUGUGAGACCAAGUUCCAGCUAUGCUUCGGACCAUGACAUGAUAGUGUCAAUAUUUUACACCAUUGUGAUUCCCUUGCUGAAUCCCGUCAUCUACAGUUUGAGCAACAGAGGAUUGAGCAUCA
B10: chr20:57651677:57651767:-|3pUTR|ENSG00000124225|msi1_unk|total|mutant (ssRNA)
RNA: GGGAGUUCUACAGUCCGACGAUCGUUGAGCUGUGUCUUGAAGGCAAAAGAAAAAAAAUUUCUACAGCCGUCUUUCUUGUUUCCCGUUGAGCUGCGUGCGUGAAUGCUUAUUUUCUUUUGUUUAUGAUAAUUUCACUUAACUUUCAACAGAGGAUUGAGCAUCA
B11: chr1:1785892:1785993:-|3pUTR|ENSG00000078369|msi1|FALSE|unique (ssRNA)
RNA: GGGAGUUCUACAGUCCGACGAUCUUUACUCUUAGAAUCGCAUGCUGUAGAAAUGCUCAAAAGUGCAUAUGGGACUCAGUCCUUAGGUGUUCUUUUUCUUUUAAGAAAUAACCUCUUACAGUUGUAACCAUUGCGGCUCUGUCCCAACAGAGGAUUGAGCAUCA
B12: chr18:21869459:21869560:+|3pUTR|ENSG00000101752|msi1|FALSE|unique (ssRNA)
RNA: GGGAGUUCUACAGUCCGACGAUCUAAAAGAUGGUCUUUAGUGCACGUGUAUCAUUAUAUACACGUUUUAAAGUCAUAUUGCUUAGCUUGUUAAUAAUGAUUCUGCAUGUGUGCUGGGUUUGGGUAAUUCUUUAAAGGAAGUUUCAACAGAGGAUUGAGCAUCA
B13: chr17:4937608:4937709:-|3pUTR|ENSG00000108528|msi1|total|mutant (ssRNA)
RNA: GGGAGUUCUACAGUCCGACGAUCAAGCGUCUCUUCCUCAGUGGCUGAAGCGGCCGGGGGCUCCCACUCGCCUGCUGCGCCUACCGCCACUGCGCCCUGGGGGCCUGGGCUCUGCUGCCCUGGACCCCUCUAUUUAUUUCCCUUCAACAGAGGAUUGAGCAUCA
B14: chr5:72207278:72207408:+|3pUTR|ENSG00000131711|msi1_unk|FALSE|overlapping (ssRNA)
RNA: GGGAGUUCUACAGUCCGACGAUCAGAGAACAAUGACCUCAUUUUAUUUUCUAUGUUAGUUAUUUAUUUCAAAAUUAACAUUUUAGUUGAUUUUUGUCUGAUAAGUCUAUGUUUUGCACUGCUAACUAUGAUGAGGGUUUAAAACAACAGAGGAUUGAGCAUCA
B15: chr3:81489889:81489990:-|3pUTR|ENSG00000114480|msi1|total|mutant (ssRNA)
RNA: GGGAGUUCUACAGUCCGACGAUCUUGGUCUAAAUUAUGAGGUACCAAGAUUGUUUCUUUGUUUCUUUUUUUCAAAUUGUGUUCCGAAAUACUGUAAUAAAUAUGCAGCCGUGAUAUAAAGAAUUAUAUCCAAGGUAAUAUAAACAACAGAGGAUUGAGCAUCA
B16: chr11:108393207:108393378:-|CDS|ENSG00000166323|control|control|control (ssRNA)
RNA: GGGAGUUCUACAGUCCGACGAUCUCUAGGACUAAUUCACACUGCAACAAAGGGGCUGAUUAGAGCUUUUGAAGAUGGGGGGAUAGAUUCUGUGAUGGAAUGGGAAGUGGAUGAAGUGCUGAACUGGACAAAUACACUGAACUUCAACAGAGGAUUGAGCAUCA
B17: chr5:72209348:72209524:+|3pUTR|ENSG00000131711|msi1_unk|total|mutant (ssRNA)
RNA: GGGAGUUCUACAGUCCGACGAUCUUAUGUCUUAUAAUCCUGCAUCACUUCUAUCCUAUCCAGUCAUAUCUAAUGCCGAAAAUCCGUUUCCAGUGAAAGUAAUAUGCCGUGCUUUUAUGAUAUUUGUGUGCAAUAUCCCCUCUUCAACAGAGGAUUGAGCAUCA
B18: chr5:136174412:136174513:+|CDS|ENSG00000113658|unk|FALSE|unique (ssRNA)
RNA: GGGAGUUCUACAGUCCGACGAUCUAUGUUGGUGGAGAGGUGUAUGCGGAAUGCCUCAGUGACAGCAGCAUAUUUGUACAGAGUAGGAACUGCAACUUUCAUCAUGGCUUUCAUCCCACCACUGUCUGUAAGAUUCCCAGCAGCCAACAGAGGAUUGAGCAUCA
B19: chr14:92688591:92688692:+|3pUTR|ENSG00000100599|msi1|total|mutant (ssRNA)
RNA: GGGAGUUCUACAGUCCGACGAUCUCCCCAUGAGUCCCCCACACCCACCCCAUCCUCGGUCUUUGCAAAGAAGGGCCCGAGCUCCGUUUCCCCAGGACUGGCCCCGGAAGGAGCACCGGCCACAGCUGCUCCCCGUGCCACUCACAACAGAGGAUUGAGCAUCA
B20: chr8:93923365:93923466:+|CDS|ENSG00000164951|msi1|FALSE|unique (ssRNA)
RNA: GGGAGUUCUACAGUCCGACGAUCGCAGGAUGUGGUUAGGAUUGUGGGUGAGUACCUAACUGGCAUGCAUCACCAACAGCCAAUAGCUGUUGGUGGCUACAAGGUGACUCUGGGACAGAUGCAUGGCCUUUUAACAGAAAGGAGCAACAGAGGAUUGAGCAUCA
B21: chr9:97930034:97931221:-|CDS|ENSG00000136929|control|control|control (ssRNA)
RNA: GGGAGUUCUACAGUCCGACGAUCCAAUGAAACAGAUCAAGGAAUAGCUGAGACAGAAGGCCUUUUUCCUAAAAUACAAGAAAUAGCUGAGCCUAAAGACCUUUCUACAAAAACACACCAAGAAUCAGCUGAACCUAAAUACCUCAACAGAGGAUUGAGCAUCA
B22: chr22:29286963:29287064:+|CDS|ENSG00000182944|unk|total|mutant (ssRNA)
RNA: GGGAGUUCUACAGUCCGACGAUCCAGAGCAGUUACUCUCAGCAGAACACCUAUGGGCAACCGAGCAGCUAUGGACAGCAGAGCCGCUAUGGUCAACAAAGCAGCUAUGGGCAGCAGCCUCCCACCCGUUACCCACCCCAAACUCAACAGAGGAUUGAGCAUCA

biological target: T1, UNK ZnF1-6 (called full-length); experiment: nsRBNS (natural sequence RNA bind-n-seq); RBNS binding buffer (assumed for nsRBNS): 25 mM Tris pH 7.5, 150 mM KCl, 3 mM MgCl2, 0.01% Triton X-100, 500 ug/ml BSA, 20 U/ml SUPERase-In, 4 C; UNK is unkempt and MSI1 is Musashi-1; names of the RNAs are library labels; protein concentration not given here; high values mean tight binding

Row | Binder | binding signal [enrichment R]
1 | B1 | 0.616
2 | B2 | 0.624
3 | B3 | 0.964
4 | B4 | 0.601
5 | B5 | 0.324
6 | B6 | 1.15
7 | B7 | 0.449
8 | B8 | 0.946
9 | B9 | 0.289
10 | B10 | 1.06
11 | B11 | 0.37
12 | B12 | 0.493
13 | B13 | 1.03
14 | B14 | 1.13
15 | B15 | 0.704
16 | B16 | 1.22
17 | B17 | 0.553
18 | B18 | 0.616
19 | B19 | 0.845
20 | B20 | 0.634
21 | B21 | 0.286
22 | B22 | 0.876
